# Reference: PubChem BioAssay AID686979 (National Center for Advancing Translational Sciences (NCATS), 2013)
# “And” between values parts separate entries of the source, which are not always exact repeats. Identical values can stand only once. Screen size: about 420,000 compounds; about 50,000 (12%) were called active. Inconclusive results, whose numbers are uncertain, are shown with a selection of clear calls. The call rests on the fitted dose curve; in most records, active means well fitted inhibition curve with a large enough effect; inconclusive means small, poorly fitted or top-dose-only effect; inactive means flat fitted curve, though single readings scatter. No potency is given beside an inconclusive call; the fits are too rough.
# Assay: qHTS for Inhibitors of human tyrosyl-DNA phosphodiesterase 1 (TDP1): qHTS in cells in presence of CPT; further: nearly all actives have a fitted effect of over 55% in size
# Settings: chicken DT40 Tdp1-/-;hTDP1 cells + 20 nM CPT, ATP luminescence, 48 h; activity change, negative = growth inhibition: at 46.2 µM (top of the series)
# Outline: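 Cell growth measured by CellTiter-Glo luminescence after a minimum 48 h, 37 C compound exposure with 20 nM CPT in Tdp1-knockout DT40 cells stably expressing hTDP1, seeded 400/well; qHTS titration format.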
# On the % scale 0 is the no-effect control and ±100 the full control effect; potency means the concentration at half of the fitted maximal effect; tags describe the fitted curve by direction and shape.
SMILES,Potency,"activity change, negative = growth inhibition"
CN(C)c1ccc(NC(=S)c2ccc3ccccc3n2)cc1,"inconclusive [inhibitor, single point]",
Nc1c2nc(-c3ccccc3Cl)[nH]c(=O)c2nc(=O)n1-c1ccccc1,"inconclusive [inhibitor, single point]",
CCOC(=O)c1c(C)[nH]c(C)c1S(=O)(=O)NCC(=O)Nc1cc(Cl)ccc1OC,"inconclusive [inhibitor, single point]",
CCCn1nc(C(=O)Oc2ccc3c(C)cc(=O)oc3c2)c2ccccc2c1=O,"inconclusive [inhibitor, single point]",
N#C/C(=C\c1ccc(N2CCCCC2)o1)C(N)=O,inactive,
Cc1ccc(NC(=S)NCc2ccc(Cl)cc2)c(C)c1,"inconclusive [inhibitor, single point]",
COc1ccc(C)cc1Nc1c2c(nc3ccccc13)CCC2,active: 920 nM and active: 3.26 µM,
O=C(CCS(=O)(=O)c1ccccc1)N1CCN(c2ccccc2)CC1,inactive,
O=C(c1ccc(Cl)cc1)N1CCC(c2nc(-c3cccs3)no2)CC1,"inconclusive [inhibitor, single point]",
OCc1cn(-c2ccccc2)nc1-c1ccc2c(c1)OCCO2,"inconclusive [inhibitor, partial curve, poor fit]",
O=C(NCC(c1ccc(F)cc1)N1CCOCC1)c1ccc(-c2ccccc2)cc1 (stereo not given),active: 16.4 µM,
CC(C)(C)C(=O)Cn1c(=O)n(CCCCCC(=O)NCc2ccccc2Cl)c(=O)c2sccc21,"inconclusive [inhibitor, single point]",
CCCCOCCCNc1ncnc2c1[nH]c1ccccc12,active: 2.06 µM,
FC(F)(F)c1ccccc1-c1ccc2ncnc(NCc3cccnc3)c2c1,active: 2.06 µM,
NC(=O)CC(NC(=O)Cc1cccc2ccccc12)c1ccc(NCc2cc(F)ccc2F)c([N+](=O)[O-])c1 (stereo not given),"inconclusive [inhibitor, single point]",
CC1=C(C(=O)OCc2ccccc2)C(c2ccco2)n2ncnc2N1 (stereo not given),active: 23.1 µM,
CC(=O)N1CCc2cc(S(=O)(=O)NCC(=O)NCc3ccc(F)cc3)ccc21,inactive,
CCC(=O)N1CCC1(C)C(=O)Nc1ccc(F)cc1 (stereo not given),inactive,
Cc1ccc(OCC(=O)Nc2ccc3c(c2)C(=O)NC3=O)c(C)c1,"inconclusive [inhibitor, single point]",
Cc1ccc(N(Cc2cc3ccccc3[nH]c2=O)C(=O)c2cccs2)cc1C,"inconclusive [inhibitor, single point]",
CC1Sc2ccc(S(=O)(=O)N3CCC(C(=O)Nc4cccc(Cl)c4)CC3)cc2NC1=O (stereo not given),"inconclusive [inhibitor, single point]",
COc1ccc(CN2CCN(Cc3c[nH]c4ccccc34)CC2CCO)cc1C (stereo not given),active: 6.51 µM,
O=C(NNC(=O)c1c(F)cccc1F)c1ccccc1-n1cccc1,inactive,
O=C(CSc1nnc(C2CCCCC2)o1)N1CCCCC1,,inconclusive: -18.7% [inhibitor]

SMILES,Potency,"activity change, negative = growth inhibition"
Cc1ccnc(SC2CC(=O)N(c3ccc([N+](=O)[O-])cc3)C2=O)n1 (stereo not given),"inconclusive [inhibitor, single point]",
COc1cccc(CN(C)C(=O)c2cc(S(=O)(=O)N3CCCCCC3)ccc2OC)c1,"inconclusive [inhibitor, partial curve]",
COC(=O)c1c(C)oc2ccc(N(C(=O)Oc3ccccc3)S(=O)(=O)c3ccc(Cl)c([N+](=O)[O-])c3)cc12,"inconclusive [inhibitor, single point]",
COc1cc(OC)cc(-c2nc3nc(C)c(CCC(=O)Nc4ccccc4)c(C)n3n2)c1,active: 14.6 µM,
CCCCNC(=O)C1(C)CCN1C(=O)c1c(F)ccc(C)c1F (stereo not given),"inconclusive [inhibitor, partial curve, poor fit]",
COc1ccc(Nc2cc(C(=O)NCCCN3CCOCC3)c3ccccc3n2)cc1OC,active: 29.1 µM,
COc1cc(/C=N/NC(=O)c2cc(-c3cccc(OC(C)C)c3)nc3ccccc23)ccc1O,"inconclusive [inhibitor, partial curve, poor fit]",
Cc1ccc(S(=O)(=O)CC(=O)Nc2nc(C(C)(C)C)cs2)cc1,"inconclusive [inhibitor, single point]",
CC(C)=CCN1CCC2(CCc3ccccc32)CC1,active: 11.6 µM,
COc1ccc(CCCC(=O)NC(C)c2ccccc2)cc1 (stereo not given),inactive,
Cc1ccc(OCCOC(=O)c2c(-c3ccccc3)noc2C)cc1,"inconclusive [inhibitor, partial curve]",
COc1ncccc1C(=O)NC1CCCc2c1cnn2-c1cc(C)cc(C)c1 (stereo not given),"inconclusive [inhibitor, single point]",
CC(C)(C)NC(=O)CN1CCCN(C(=O)c2cccc(S(=O)(=O)N3CCc4ccccc43)c2)CC1,"inconclusive [inhibitor, single point]",
COc1ccc(OCc2cc(C(=O)NC(C)c3csc(C)n3)no2)c(Cl)c1 (stereo not given),"inconclusive [inhibitor, single point]",
Cc1ccc(S(=O)(=O)NCC(=O)OCC(=O)N(CCC#N)c2ccccc2)cc1,inactive,
COc1ccc(OC)c(-c2csc(NC(=O)COC(=O)C3CC3)n2)c1,inactive,
CCOc1ccccc1N(CC(=O)Nc1cc(OC)ccc1OC)S(=O)(=O)c1ccccc1,"inconclusive [inhibitor, single point]",
Cc1ccc(NC(=O)COc2coc(CN3c4ccccc4CC3C)cc2=O)c(C)c1 (stereo not given),"inconclusive [inhibitor, partial curve]",
CCOC(=O)C1=C(CC)OC(N)=C(C#N)C1c1cccs1 (stereo not given),inactive,
Clc1ccccc1-c1nccc(NCc2ccccc2)n1,"inconclusive [inhibitor, single point]",
CN(C)Cc1csc(NC(=O)Nc2cccc(C(F)(F)F)c2)n1,active: 14.6 µM,
O=c1[nH]c(/C(Cl)=C/c2cccc(C(F)(F)F)c2)nc2cc(Cl)ccc12,"inconclusive [inhibitor, partial curve]",
CCc1ccc(NC(=O)Cn2c(C(=O)OC)cc3oc(C)cc32)cc1,"inconclusive [inhibitor, single point]",
Cc1ccc(S(=O)(=O)N2CCC(C(=O)NNC(=O)c3ccccc3O)CC2)cc1,"inconclusive [inhibitor, single point]",

SMILES,Potency,"activity change, negative = growth inhibition"
CC(C)c1onc(C(=O)NC(C)c2ccccc2)c1[N+](=O)[O-] (stereo not given),"inconclusive [inhibitor, single point]",
C=C1C(=O)OC2C[C@@]3(C)CCCC(C)C3=CC12 (stereo not given in full),"inconclusive [inhibitor, single point]",
COC(=O)c1cc(C(=O)OCC(=O)N2c3ccccc3NC(=O)C2(C)C)cc([N+](=O)[O-])c1,inactive,
CCN1CCN(Cc2nc3cc(NC(=O)c4cccc([N+](=O)[O-])c4)ccc3n2CC)CC1,inactive,
COc1ccc(C(=O)C(C)OC(=O)c2cccc(S(=O)(=O)Nc3c(C)n(C)n(-c4ccccc4)c3=O)c2)cc1 (stereo not given),"inconclusive [inhibitor, partial curve, poor fit]",
COc1cc(COc2ccc3c(C)c(Cc4ccccc4)c(=O)oc3c2)cc(OC)c1OC,"inconclusive [inhibitor, single point]",
O=C(NNC(=S)NCc1ccccc1)c1cccnc1,inactive,
CCOc1cccc(/C=N/N2CCN(c3ccc(Cl)cc3)CC2)c1O,"inconclusive [inhibitor, single point]",
Cc1cccnc1Nc1nc(-c2ccccn2)cs1,active: 0.13 µM,
Fc1ccc(N2CCN(Cc3ccc4c(c3)CN(Cc3cccn3-c3cccnc3)CCO4)CC2)cc1,"inconclusive [inhibitor, single point]",
Cc1ccccc1OCC(=O)Nc1ccc2[nH]c(=O)sc2c1,"inconclusive [inhibitor, partial curve]",
Cc1c(C)n(C)c2ccc(C(=O)NCCCN3CCN(c4ccccc4F)CC3)cc12,active: 9.2 µM,
COc1ccc(OCCCC(=O)Nc2cc(S(=O)(=O)N3CCCCC3)ccc2OC)cc1,inactive,
CCc1ccc(C2CC(=O)c3c([nH]c(C(=O)OC4CCCCCC4)c3C)C2)cc1 (stereo not given),inactive,
Nc1ncc(-c2ccccc2)n1CC1CCCO1 (stereo not given),"inconclusive [inhibitor, single point]",
COc1ccc2c(c1OC)CN(C)CCc1cc3c(cc1C(O)C2)OCO3 (stereo not given),"inconclusive [inhibitor, single point]",
CCCCNC(=O)C[C@@H]1C[C@@]2(C(=O)OCC)CCCC=C2N(Cc2ccco2)C1=O,"inconclusive [inhibitor, partial curve]",
Brc1ccc(-c2nnc3n2-c2ccccc2CC3)cc1,inactive,
CC(C)c1cc(-c2cc(-c3ccccc3)on2)nc(NC2CCCC2)n1,,inconclusive: -34.3% [inhibitor]
CCn1c(=O)c(=O)[nH]c2cc(C(=O)NC3CCCC3)ccc21,"inconclusive [inhibitor, single point]",
O=C(Nc1cc(-c2nn(CC(=O)N3CCCCC3)c(=O)c3ccccc23)ccc1N1CCOCC1)c1ccc(Cl)cc1,inactive,
Cc1cc(/C=C2\SC(=S)N(Cc3ccco3)C2=O)c(C)n1-c1ccccc1,"inconclusive [inhibitor, single point]",
